PubChem BioAssay AID686979 (National Center for Advancing Translational Sciences (NCATS), 2013)
Values joined by “and” are separate entries in the source; they are usually repeats but may differ in a detail not shown here. Equal values may be shown once. The campaign covered roughly 420,000 compounds. About 50,000 (12%) were called active. Inconclusive means that the source gave no clear call. Such entries were picked first, then a sample of the others. Calls come from the whole dose curve; as a rule, active = well fitted inhibition curve with a large enough effect; inconclusive = small, poorly fitted or top-dose-only effect; inactive = flat fitted curve, though single readings scatter. A potency beside an inconclusive call is a rough fit, not a confirmed value.
% is set by controls: 0 for no effect and ±100 for the full control effect; potency is the fitted concentration of half-maximal effect; tags give direction and shape of the fitted curve.

Assay: qHTS for Inhibitors of human tyrosyl-DNA phosphodiesterase 1 (TDP1): qHTS in cells in presence of CPT; note: nearly all actives have a fitted effect of over 55% in size
Details: chicken DT40 Tdp1-/-;hTDP1 cells + 20 nM CPT, ATP luminescence, 48 h; activity change, negative = growth inhibition: at 46.2 µM (top of the series)
How it was run: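 Chicken DT40 Tdp1-/- cells complemented with human TDP1, 400 cells/well, exposed to compounds plus 20 nM camptothecin for at least 48 h at 37 C; viability read as ATP content by CellTiter-Glo luminescence.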
For COc1ccc(N(C(=O)c2ccncc2)S(=O)(=O)c2cccc([N+](=O)[O-])c2)cc1, the “activity change, negative = growth inhibition” value was inactive: -15.7%.
In the case of CCn1c(CCC(=O)O)nc2cc(S(=O)(=O)N(C)C)ccc21, the “activity change, negative = growth inhibition” value is reported as inactive: -5.3%.
For CCn1c(SCC(=O)Nc2cc(C)on2)nnc1-c1cccc(C)c1, the Potency was inconclusive: 29.1 µM [inhibitor, single point].
With COc1ccc(C(=O)NNC(=O)c2snnc2C)cc1 the “activity change, negative = growth inhibition” value was inactive: 6.73%.
With COc1cccc(Nc2ncc3nc(-c4cc(F)cc(F)c4)c(=O)n(CCC#N)c3n2)c1 the Potency was active: 11.6 µM.
For C#Cc1ccc([C@@H]2C=C(C(=O)N3CCOCC3)O[C@H](OCc3ccc(CO)cc3)C2)cc1, the Potency was inconclusive: 29.1 µM [inhibitor, single point].
With CCOC(=O)CNS(=O)(=O)c1ccc2c3c(cccc13)C(=O)N2CC the “activity change, negative = growth inhibition” value was inactive: 2.76%.
In the case of O=C(Nc1cccc(S(=O)(=O)Nc2ccc(Cl)cc2)c1)c1ccc(Cl)nc1, the Potency is reported as active: 2.31 µM.
In the case of Cc1nc(CS(=O)(=O)c2ccccc2)cc(Sc2ccc(Cl)cc2)n1, the Potency is reported as inconclusive: 29.1 µM [inhibitor, single point].
In the case of O=C(NCc1ccncc1)[C@@H]1CCCN1C(=O)[C@@H]1CCCN1C(=O)c1ccccc1Cl, the Potency is reported as inconclusive: 29.1 µM [inhibitor, single point].
For N/C(=N\c1nc2ccccc2o1)NC(=O)c1ccccc1, the Potency was inconclusive: 29.1 µM [inhibitor, single point].
For CCOC(=O)CC1C(=O)NCCN1c1nc2c(C)cccn2c(=O)c1/C=C1\SC(=S)N(C(C)CC)C1=O (stereo not drawn), the Potency was active: 16.4 µM.
In the case of Cc1ccc(OCC(=O)NCc2ccc3c(c2)OCO3)c([N+](=O)[O-])n1, the Potency is reported as inconclusive: 20.6 µM [inhibitor, single point].
In the case of COc1cc(NC(=O)c2ccc(Cl)cc2Cl)ccc1NC(=O)c1cccs1, the Potency is reported as inconclusive: 23.1 µM [inhibitor, single point].
In the case of Cc1cccc(C(=O)N/C(=C/c2ccco2)C(=O)N2CCCCCC2)c1, the “activity change, negative = growth inhibition” value is reported as inactive: -22.5%.
In the case of O=C(CCS(=O)(=O)c1ccc(Cl)cc1)Oc1ccc2c(c1)OCO2, the Potency is reported as inconclusive: 16.4 µM [inhibitor, single point].
With COC(=O)[C@H]1C[C@@]2(O)CN(S(=O)(=O)c3ccc(C)cc3)C[C@@]2(OC(=O)NC2CCCC2)C[C@H]1C(=O)OC the “activity change, negative = growth inhibition” value was inactive: -13.9%.
With CCCS(=O)(=O)c1nc(S(=O)(=O)c2ccc(C)cc2)c(NCc2ccccc2)s1 the “activity change, negative = growth inhibition” value was inactive: -27.2%.
With Cc1ccc(/C=C/c2onc(C)c2S(=O)(=O)N2CCC(C(=O)N3CCCCC3)CC2)cc1 the Potency was inconclusive: 29.1 µM [inhibitor, single point].
In the case of COc1ccc(Cl)cc1N(CC(=O)NC1CC2CCC1C2)S(=O)(=O)c1ccccc1 (stereo not drawn), the Potency is reported as active: 20.6 µM.
For Cn1c(SCC(=O)NCC2CCCO2)ncc(C(=O)Nc2ccc(Cl)cc2)c1=O (stereo not drawn), the Potency was active: 7.31 µM.
In the case of Cc1ccc2c(c1)c(=O)c1ccccc1n2CCCC(=O)Nc1c(F)cccc1F, the “activity change, negative = growth inhibition” value is reported as inactive: -5.15%.
For Cc1ccc(NC(=O)CCCc2c[nH]c3ccccc23)nc1, the “activity change, negative = growth inhibition” value was inactive: 0.175%.
For N#CCCN(C(=O)COC(=O)c1cc(S(=O)(=O)N2CCOCC2)ccc1Cl)c1ccc(F)cc1, the “activity change, negative = growth inhibition” value was inactive: 10.4%.
With Oc1ccccc1-n1c(-c2ccccc2)ccc1-c1ccccc1 the Potency was inconclusive: 23.1 µM [inhibitor, single point].
In the case of O=S1(=O)N=C(N/N=C/C=C/c2ccccc2)c2ccccc21, the Potency is reported as inconclusive: 23.1 µM [inhibitor, single point].
With Cc1ccc(NC2=C(Cl)C(=O)OC2OC(=O)c2ccco2)c(C)c1 (stereo not drawn) the Potency was inconclusive: 23.1 µM [inhibitor, single point].
In the case of CC(=O)Nc1ccc(C(=O)OCC(=O)N(c2ccccc2)C2CCCCC2)cc1, the Potency is reported as inconclusive: 23.1 µM [inhibitor, single point].
With COc1ccc(C(=O)Nc2cc(OCc3ccccc3)c(Cl)cc2Cl)cc1 the Potency was inconclusive: 25.9 µM [inhibitor, single point].
In the case of CC(C)COC(=O)N(C)C[C@@H]1OCc2cnnn2CCCC(=O)N([C@@H](C)CO)C[C@@H]1C, the “activity change, negative = growth inhibition” value is reported as inactive: -1.33%.
For CC(C)[C@H](NC(=O)c1cccc(CN(Cc2ccccc2)C(=O)/C=C/c2ccccc2)c1)C(=O)O, the “activity change, negative = growth inhibition” value was inactive: 0.544%.
With Cn1c(-c2ccccc2)cnc1NCc1ccccc1 the Potency was inconclusive: 29.1 µM [inhibitor, single point].
In the case of Cc1ccc(N2C(=O)CC(Sc3ncn[nH]3)C2=O)cc1 (stereo not drawn), the Potency is reported as active: 5.17 µM.
With CCOC(=O)Cn1nnnc1C(C(C)C)N(Cc1cc2c(C)cc(C)cc2[nH]c1=O)C1CCCC1 (stereo not drawn) the Potency was active: 23.1 µM.
In the case of CC(=O)Nc1ccc(S(C)(=O)=O)c(C)c1, the “activity change, negative = growth inhibition” value is reported as inactive: -1.09%.
With COc1ccc(-c2cc(NC=O)c3ncc(-c4cccc(C(F)(F)F)c4)n3c2)c(OC)c1 the Potency was active: 18.4 µM.
For C#CCOCCOCCOCCNc1nc(N2CCN(C(=O)C([C@@H](C)CC)n3cc(C(N)COC(=O)C(F)(F)F)nn3)CC2)nc(N2CCN(C(=O)[C@H](CCC(=O)O)n3cc(C(N)CC(C)C)nn3)CC2)n1 (stereo partly drawn), the “activity change, negative = growth inhibition” value was inactive: -0.0827%.
With CCc1ccc(NC(=O)C(=O)NNC(=O)c2ccc(OC)cc2)cc1 the Potency was inconclusive: 25.9 µM [inhibitor, partial curve].
In the case of CCC(=O)N1CCc2cc(S(=O)(=O)CCC(=O)NCc3cccc(OC)c3)ccc21, the Potency is reported as inconclusive: 18.4 µM [inhibitor, partial curve, poor fit].
For O=[N+]([O-])c1ccc(N2CCN(c3cccc(Cl)c3)CC2)cn1, the Potency was inconclusive: 29.1 µM [inhibitor, single point].
With COc1ccc(NC(=O)c2c(C)oc3ccc(O)c(CN4CCN(Cc5ccccc5)CC4)c23)cc1 the Potency was active: 20.6 µM.
For C=CCN1CCc2c(cc(O)c(O)c2Br)[C@@H](c2ccccc2)C1, the Potency was inconclusive: 29.1 µM [inhibitor, single point] and inconclusive: 16.4 µM [inhibitor, single point].
For CCOc1ccc(NC(=O)CCS(=O)(=O)c2ccc(Br)cc2)cc1, the Potency was inconclusive: 18.4 µM [inhibitor, single point] and inconclusive: 11.6 µM [inhibitor, partial curve].
For CCOC(=O)[C@@H]1[C@H]2COc3cc(OC)ccc3[C@@H]2N2C(=O)N(c3cccc(C)c3)C(=O)[C@]12C, the Potency was inconclusive: 29.1 µM [inhibitor, single point].
For Nc1nc(N)c2c(OCc3ccc(C(F)(F)F)cc3)cccc2n1, the Potency was active: 5.01 µM.
With CCOC(=O)c1cnc2ccc(OCC)cc2c1N(C)Cc1ccccc1 the Potency was inconclusive: 23.1 µM [inhibitor, single point].
With COc1ccc(/C=C(/C#N)c2nc(-c3ccc(Br)cc3)cs2)cc1 the Potency was inconclusive: 4.11 µM [inhibitor, single point].
For O=C(NCc1ccc(F)cc1)C(Cc1ccccc1)n1cccc1 (stereo not drawn), the Potency was inconclusive: 6.51 µM [inhibitor, single point].
In the case of Cc1ccc(Sc2ccc(N)cn2)cc1, the “activity change, negative = growth inhibition” value is reported as inactive: -1.75%.
For CC(=O)OC(C(=O)Nc1nncs1)c1ccccc1 (stereo not drawn), the “activity change, negative = growth inhibition” value was inactive: -10.5%.
With CC(Oc1ccc(F)cc1)C(=O)Nc1cc(S(=O)(=O)N2CCOCC2)ccc1N1CCN(C)CC1 (stereo not drawn) the “activity change, negative = growth inhibition” value was inactive: 0.854%.
With CO[C@H]1C[C@@H]2CC[C@@H](C)[C@@](O)(O2)C(=O)C(=O)N2CCCC[C@H]2C(=O)O[C@H](C(C)C[C@H]2CC[C@@H](O)[C@H](OC)C2)CC(=O)[C@H](C)/C=C(\C)[C@@H](O)[C@@H](OC)C(=O)[C@H](C)C[C@H](C)/C=C/C=C/C=C/1C (stereo partly drawn) the Potency was active: 0.0079 µM.
In the case of CSc1ccc(CN2CCC(n3nccc3NC(=O)C3CCOC3)CC2)cc1 (stereo not drawn), the “activity change, negative = growth inhibition” value is reported as inactive: -9.26%.
With Cc1c(C(=O)NCCN2CCOCC2)sc2nc(-c3ccc(F)cc3)cn12 the Potency was inconclusive: 29.1 µM [inhibitor, single point].
In the case of O=C1CC(N2CCN(c3ccc(C(=O)c4ccc(F)cc4)cc3)CC2)C(=O)N1 (stereo not drawn), the Potency is reported as inconclusive: 20.6 µM [inhibitor, single point].
In the case of N=C(N)Cc1ccccc1Sc1ccccc1, the Potency is reported as active: 9.2 µM.
For Cc1cccc(CCNC(=O)C2CCC(CNS(=O)(=O)c3cccs3)CC2)c1 (stereo not drawn), the Potency was inconclusive: 18.4 µM [inhibitor, single point].
For COc1cccc(C2=NNC(=NCc3ccccc3)SC2)c1, the Potency was inconclusive: 20.6 µM [inhibitor, single point].
For O=C1O/C(=C\C(=O)N2CCOCC2)c2ccccc21, the “activity change, negative = growth inhibition” value was inactive: -14.5%.
With COc1cc(NC(=O)COc2ccccc2C)ccc1NC(=O)c1ccco1 the “activity change, negative = growth inhibition” value was inactive: -3.22%.
For CCCN(CC(=O)Nc1cc(Cl)ccc1Cl)C(=O)c1ccccn1, the Potency was inconclusive: 29.1 µM [inhibitor, single point].
With CCc1ccc(C2=NN(CCC(=O)NCCc3ccc(Cl)cc3)C(=O)CC2)cc1 the Potency was inconclusive: 29.1 µM [inhibitor, single point].
For Cc1ccc(C(=O)COC(=O)CCC(=O)Nc2ccc(Oc3cc(C)ccc3C(C)C)cc2)cc1, the Potency was inconclusive: 7.31 µM [inhibitor, partial curve].
In the case of CCOC(=O)C1CCN(C(=O)C23CC4CC(CC(C4)C2)C3)CC1, the Potency is reported as inconclusive: 11.6 µM [inhibitor, partial curve].
In the case of COc1ccc(C(=O)Nc2ccc(S(=O)(=O)N3CCCC3)cc2)cc1[N+](=O)[O-], the “activity change, negative = growth inhibition” value is reported as inactive: -25.9%.
For Cc1ccc(S(=O)(=O)N2CCOC23CCN(S(=O)(=O)c2cccs2)CC3)cc1, the Potency was inconclusive: 9.2 µM [inhibitor, partial curve].
For COc1cccc(C(=O)N2N=C(c3cccc(OC)c3)CC2(O)C(F)(F)F)c1 (stereo not drawn), the Potency was inconclusive: 29.1 µM [inhibitor, single point].
For Cc1noc(C)c1COc1ccccc1C(=O)NCCc1ccc(Cl)cc1, the Potency was inconclusive: 18.4 µM [inhibitor, single point].
